# Reference: the supplement of paper PMC8728848
# Some of the results follow.
# B1: PX9961C-bth-497-22-497 (Bacteroides thetaiotaomicron) (protein)
# chain: DWLDLNTTSSVETGQAIVTLDDAQIALNGIYRLASGHSYYGDNYWYYGDCRAADVQARITKGDGKRVSPYYEYNVLASDNLNIVLPWNTVYKVIRQTNNLIQKIESGSIQSSDTKELNRIKSEALVMRGLSLFNLTRLFGMPYTNDKGASLGVPIETSPSDPTHKPSRSTVAQCYEQVVSDMSNALSGLRQETSNGYINYWAAQALLSRVYLNMGEYQKAYDAATDVIKNNGGRYQLYSYEEYPNVWGQDFQSESLFELYITLSEPSGGTGGEGAPMVYANEATVDWNNLILSEDFLNLLNEDPKDVRHCLTKESVIENNTGLPAAAMHEKVYLAKFPGKTGDDPKTNNICIIRLSEVYLNAAEAGLKKGTDIEEAQGYLNDIISRRTTDTSQQVSTETFTLDRILKERRKELVGEGEVFYDYLRNGLAIERKGSWHLETLKASNAQKIEATDLRIALPIPQSEIDANPNIQQNPR
# How the values were obtained:
# Test in all cases: glycan array binding signal (z-score within array); higher = stronger binding
# Details in all cases: glycan notation: IUPAC condensed, linker removed
# [1] = target: Neu5Ac(a2-3)Gal(b1-3)GalNAc
# Procedure, shortened: (§1)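 The binding signal is a Z-score computed within each array. Data were drawn from 3228 arrays in the Consortium for Functional Glycomics database, restricted to those with a known protein sequence. Scores were averaged over arrays of the same protein sequence at different concentrations or buffers, and over linkers, and negative values can be taken as non-binding.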
# [2] = target: Neu5Ac(a2-3)Gal(b1-3)GalNAc(b1-3)Gal(a1-4)Gal(b1-4)Glc
# Procedure, shortened: as §1
# [3] = target: Neu5Ac(a2-3)Gal(b1-3)GalNAc(b1-4)[Neu5Ac(a2-3)]Gal(b1-4)Glc
# Procedure, shortened: as §1
# [4] = target: Neu5Ac(a2-3)Gal(b1-3)GalNAc(b1-4)[Neu5Ac(a2-8)Neu5Ac(a2-3)]Gal(b1-4)Glc
# Procedure, shortened: as §1
# [5] = target: Neu5Ac(a2-3)Gal(b1-3)GalNAc6S
# Procedure, shortened: as §1
# [6] = target: Neu5Ac(a2-3)Gal(b1-3)GlcNAc
# Procedure, shortened: as §1
# [7] = target: Neu5Ac(a2-3)Gal(b1-3)GlcNAc(b1-2)Man
# Procedure, shortened: as §1
# [8] = target: Neu5Ac(a2-3)Gal(b1-3)GlcNAc(b1-2)Man(a1-3)[GlcNAc(b1-4)][Neu5Ac(a2-3)Gal(b1-3)GlcNAc(b1-2)Man(a1-6)]Man(b1-4)GlcNAc(b1-4)GlcNAc
# Procedure, shortened: as §1
# [9] = target: Neu5Ac(a2-3)Gal(b1-3)GlcNAc(b1-2)Man(a1-3)[Neu5Ac(a2-3)Gal(b1-3)GlcNAc(b1-2)Man(a1-6)]Man(b1-4)GlcNAc(b1-4)GlcNAc
# Procedure, shortened: as §1
# [10] = target: Neu5Ac(a2-3)Gal(b1-3)GlcNAc(b1-3)Gal(b1-3)GlcNAc
# Procedure, shortened: as §1
# [11] = target: Neu5Ac(a2-3)Gal(b1-3)GlcNAc(b1-3)Gal(b1-4)GlcNAc
# Procedure, shortened: as §1
# [12] = target: Neu5Ac(a2-3)Gal(b1-3)GlcNAc(b1-3)GalNAc
# Procedure, shortened: as §1
# [13] = target: Neu5Ac(a2-3)Gal(b1-3)GlcNAc(b1-4)Gal(b1-4)Glc
# Procedure, shortened: as §1
# [14] = target: Neu5Ac(a2-3)Gal(b1-3)GlcNAc(b1-6)GalNAc
# Procedure, shortened: as §1
# [15] = target: Neu5Ac(a2-3)Gal(b1-3)GlcNAc6S
# Procedure, shortened: as §1
# [16] = target: Neu5Ac(a2-3)Gal(b1-3)[Fuc(a1-4)]GlcNAc
# Procedure, shortened: as §1
# [17] = target: Neu5Ac(a2-3)Gal(b1-3)[Fuc(a1-4)]GlcNAc(b1-3)Gal(b1-3)[Fuc(a1-4)]GlcNAc
# Procedure, shortened: as §1
# [18] = target: Neu5Ac(a2-3)Gal(b1-3)[Fuc(a1-4)]GlcNAc(b1-3)Gal(b1-4)[Fuc(a1-3)]GlcNAc
# Procedure, shortened: as §1
# [19] = target: Neu5Ac(a2-3)Gal(b1-3)[GlcNAc(b1-6)]GalNAc
# Procedure, shortened: as §1
# [20] = target: Neu5Ac(a2-3)Gal(b1-3)[Neu5Ac(a2-6)]GalNAc
# Procedure, shortened: as §1
# [21] = target: Neu5Ac(a2-3)Gal(b1-3)[Neu5Ac(a2-6)]GlcNAc(b1-3)[Fuc(a1-3)[Gal(b1-4)]GlcNAc(b1-6)]Gal(b1-4)Glc
# Procedure, shortened: as §1
# [22] = target: Neu5Ac(a2-3)Gal(b1-3)]Neu5Ac(a2-3)Gal(b1-4)]GlcNAc
# Procedure, shortened: as §1
# [23] = target: Neu5Ac(a2-3)Gal(b1-4)Glc
# Procedure, shortened: as §1
# [24] = target: Neu5Ac(a2-3)Gal(b1-4)GlcNAc
# Procedure, shortened: as §1
# [25] = target: Neu5Ac(a2-3)Gal(b1-4)GlcNAc(b1-2)Man
# Procedure, shortened: as §1
# [26] = target: Neu5Ac(a2-3)Gal(b1-4)GlcNAc(b1-2)Man(a1-3)[GlcNAc(b1-4)][Neu5Ac(a2-3)Gal(b1-4)GlcNAc(b1-2)Man(a1-6)]Man(b1-4)GlcNAc(b1-4)GlcNAc
# Procedure, shortened: as §1
# [27] = target: Neu5Ac(a2-3)Gal(b1-4)GlcNAc(b1-2)Man(a1-3)[Neu5Ac(a2-3)Gal(b1-4)GlcNAc(b1-2)Man(a1-6)]Man(b1-4)GlcNAc(b1-4)GlcNAc
# Procedure, shortened: as §1
# [28] = target: Neu5Ac(a2-3)Gal(b1-4)GlcNAc(b1-2)Man(a1-3)[Neu5Ac(a2-3)Gal(b1-4)GlcNAc(b1-2)Man(a1-6)]Man(b1-4)GlcNAc(b1-4)[Fuc(a1-6)]GlcNAc
# Procedure, shortened: as §1
# [29] = target: Neu5Ac(a2-3)Gal(b1-4)GlcNAc(b1-2)Man(a1-3)[Neu5Ac(a2-6)Gal(b1-4)GlcNAc(b1-2)Man(a1-6)]Man(b1-4)GlcNAc(b1-4)GlcNAc
# Procedure, shortened: as §1
# [30] = target: Neu5Ac(a2-3)Gal(b1-4)GlcNAc(b1-2)[Neu5Ac(a2-3)Gal(b1-4)GlcNAc(b1-4)]Man(a1-3)[GlcNAc(b1-4)][Neu5Ac(a2-3)Gal(b1-4)GlcNAc(b1-2)[Neu5Ac(a2-3)Gal(b1-4)GlcNAc(b1-6)]Man(a1-6)]Man(b1-4)GlcNAc(b1-4)GlcNAc
# Procedure, shortened: as §1
# [31] = target: Neu5Ac(a2-3)Gal(b1-4)GlcNAc(b1-2)[Neu5Ac(a2-3)Gal(b1-4)GlcNAc(b1-4)]Man(a1-3)[GlcNAc(b1-4)][Neu5Ac(a2-3)Gal(b1-4)GlcNAc(b1-4)Man(a1-6)]Man(b1-4)GlcNAc(b1-4)GlcNAc
# Procedure, shortened: as §1
# [32] = target: Neu5Ac(a2-3)Gal(b1-4)GlcNAc(b1-2)[Neu5Ac(a2-3)Gal(b1-4)GlcNAc(b1-6)]Man(a1-6)[Neu5Ac(a2-3)Gal(b1-4)GlcNAc(b1-2)Man(a1-3)]Man(b1-4)GlcNAc(b1-4)GlcNAc
# Procedure, shortened: as §1
# [33] = target: Neu5Ac(a2-3)Gal(b1-4)GlcNAc(b1-2)[Neu5Ac(a2-3)Gal(b1-4)GlcNAc(b1-6)]Man(a1-6)[Neu5Ac(a2-3)Gal(b1-4)GlcNAc(b1-2)Man(a1-3)][GlcNAc(b1-4)]Man(b1-4)GlcNAc(b1-4)GlcNAc
# Procedure, shortened: as §1
# [34] = target: Neu5Ac(a2-3)Gal(b1-4)GlcNAc(b1-3)Gal
# Procedure, shortened: as §1
# [35] = target: Neu5Ac(a2-3)Gal(b1-4)GlcNAc(b1-3)Gal(b1-3)GlcNAc
# Procedure, shortened: as §1
# [36] = target: Neu5Ac(a2-3)Gal(b1-4)GlcNAc(b1-3)Gal(b1-4)GlcNAc
# Procedure, shortened: as §1
# [37] = target: Neu5Ac(a2-3)Gal(b1-4)GlcNAc(b1-3)Gal(b1-4)GlcNAc(b1-2)Man(a1-3)[Neu5Ac(a2-3)Gal(b1-4)GlcNAc(b1-3)Gal(b1-4)GlcNAc(b1-2)Man(a1-6)]Man(b1-4)GlcNAc(b1-4)GlcNAc
# Procedure, shortened: as §1
binder,measurement,setting,value
B1,glycan array binding signal (z-score),[1],0.385
same,glycan array binding signal (z-score),[2],-0.562
same,glycan array binding signal (z-score),[3],-0.488
same,glycan array binding signal (z-score),[4],0.021
same,glycan array binding signal (z-score),[5],0.621
same,glycan array binding signal (z-score),[6],-0.305
same,glycan array binding signal (z-score),[7],-0.458
same,glycan array binding signal (z-score),[8],-0.488
same,glycan array binding signal (z-score),[9],0.211
same,glycan array binding signal (z-score),[10],-0.653
same,glycan array binding signal (z-score),[11],0.993
same,glycan array binding signal (z-score),[12],-0.161
same,glycan array binding signal (z-score),[13],-0.102
same,glycan array binding signal (z-score),[14],-0.344
same,glycan array binding signal (z-score),[15],0.111
same,glycan array binding signal (z-score),[16],-0.629
same,glycan array binding signal (z-score),[17],2.16
same,glycan array binding signal (z-score),[18],-0.333
same,glycan array binding signal (z-score),[19],-0.029
same,glycan array binding signal (z-score),[20],-0.545
same,glycan array binding signal (z-score),[21],-0.322
same,glycan array binding signal (z-score),[22],-0.482
same,glycan array binding signal (z-score),[23],-0.045
same,glycan array binding signal (z-score),[24],-0.558
same,glycan array binding signal (z-score),[25],-0.404
same,glycan array binding signal (z-score),[26],-0.279
same,glycan array binding signal (z-score),[27],-0.106
same,glycan array binding signal (z-score),[28],-0.32
same,glycan array binding signal (z-score),[29],-0.587
same,glycan array binding signal (z-score),[30],-0.104
same,glycan array binding signal (z-score),[31],-0.502
same,glycan array binding signal (z-score),[32],0.379
same,glycan array binding signal (z-score),[33],-0.163
same,glycan array binding signal (z-score),[34],0.136
same,glycan array binding signal (z-score),[35],-0.865
same,glycan array binding signal (z-score),[36],-0.432
same,glycan array binding signal (z-score),[37],-0.402
